Several values for one entry are separate records, joined by “and”; a condition that tells them apart may be missing. Equal values may be shown once. This is one part of the list. Further columns of the screen follow, without active or inactive calls. For some assays here: The list favours compounds with an active or inconclusive main result. For some assays here: Potencies come from curve fits of mixed quality, noted in brackets.
Legend:
[1] = qHTS Assay for Lipid Storage Modulators (AID 1519); settings: Drosophila S3 cells, BODIPY lipid droplet/cell ratio, laser cytometry, cells loaded with oleic acid
Procedure, shortened: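 Cells seeded at 5,000 per well were treated with compounds over a concentration series and loaded with oleic acid (400 uM, as added). Lipid droplet fluorescence (488 nm excitation, 500-530 nm channel) was read by laser-scanning cytometry and normalized to 20 uM Triacsin C.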

[2] = qHTS drug screen for cell cycle checkpoint inhibitors in PARPi-resistant BRCA-mutant ovarian cancer cell lines. (AID 1963452); settings: PEO1/OlaR viability, CellTiter-Glo luminescence, 96 h
Procedure, shortened: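 PEO1, PEO4 and PEO1/OlaR ovarian cancer cells, 600 per well, exposed 96 h at 37C to a dilution series. Viability read by CellTiter-Glo luminescence, normalized to DMSO and empty wells; activity summarized as Z-AUC.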

[3] = qHTS Assay for Modulators of Human Peripheral Myelin Protein 22 (PMP22) Expression/Activity (AID 1967); settings: Cell-based PMP22 reporter, dual-color luciferase ratio
Procedure, shortened: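 Luminescence ratio of Pmp22 promoter-driven green luciferase to EF-alpha-driven red luciferase, in engineered mouse MSC80 Schwann cells, served as read-out. Compounds were incubated 24h; untreated cells defined 0% Activity; curves were classified by r2, magnitude and activity.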

[4] = molecular target: Histamine N-methyltransferase (Homo sapiens) (UniProt P50135); assay: Confirmatory Screen for Target Class Profiling of Small Molecule Inhibitors of Methyltransferases (AID 1745852); settings: MTase-Glo luminescence, SAH detection, recombinant enzyme; measured here: HNMT inhibition potency;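 also: inhibitor potency for blocking SAH production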
[5] = NCATS anti-infectives library activity on the primary C. elegans qHTS viability assay (AID 1745855); settings: C. elegans worm area imaging
Procedure, shortened: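 Viability read-out is GFP fluorescence of PE254-GFP-FLuc C. elegans, measured by laser cytometry (488 nm) at day 0, 3 and 7. Ten L1 worms per well were incubated 7 days at 21 °C with compounds and bacterial capsules in S medium.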

[6] = qHTS Validation Assay to Find Inhibitors of Chronic Active B-Cell Receptor Signaling (AID 485345); settings: ABC-DLBCL cells, chronic BCR signaling reporter; measured here: CBR control luciferase (viability counter)
Procedure, shortened: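 TMD8 ABC-DLBCL cells with dox-inducible green luciferase–IκBα fusion and red native luciferase; compounds 46 uM–3 nM, 4 h at 37C with doxycycline in 0.5% FBS IMDM. Green/red ratio normalized to basal and 10 uM MG-132.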

[7] = Nrf2 qHTS screen for inhibitors: Validation (AID 493153); settings: A549 ARE-Fluc reporter, 18-24 h; AC50: CellTiter-Fluor fluorescence read, measured here: cytotoxicity CellTiter-Fluor AC50; viability change: measured here: cytotoxicity max response
Procedure, shortened: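 Luminescence from an ARE-firefly luciferase reporter in A549 cells gives Nrf2 inhibition; an earlier CellTiter-Fluor fluorescent read flags cytotoxicity. Cells in 5% FBS OPTI-MEM received compound dilution series for 18-24 h at 37°C.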

[8] = qHTS assay for small molecule antagonists of androgen receptor signaling (AID 588516); settings: AR-UAS-bla HEK293, beta-lactamase ratio, antagonist mode, 16 h; measured here: W530 green channel, cytotoxicity/artifact
Procedure, shortened: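 Antagonist-mode qHTS: inhibition of R1881 (10 nM)-driven beta-lactamase expression in GripTite HEK 293 cells is measured after 16 h; values are Hill-derived IC50s normalized between R1881 and DMSO wells.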

[9] = qHTS assay for small molecule agonists of retinoid X receptor alpha signaling (AID 588544); settings: HEK293T RXRa-UAS-bla, beta-lactamase reporter, 18 h; 530 nm emission
[10] = qHTS for identification of novel therapeutic agents for treatment of microphthalmiaassociated transcription factor (MiT) renal cell carcinoma (RCC) (AID 1963991); settings: CellTiter-Glo, 48 h; for z-score: stronger effect = lower value
Procedure, shortened: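 Curves over 11 concentrations were fitted to CellTiter-Glo luminescence, scaled between empty wells (0%) and DMSO (100%) viability. Cells were UOK109, UOK124 and UOK145 TFE3-fusion RCC lines at 500/well, exposed 48 hours at 37 C.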

[11] = molecular target: Catechol O-methyltransferase (Homo sapiens) (UniProt P21964); assay: Confirmatory Screen for Target Class Profiling of Small Molecule Inhibitors of Methyltransferases (AID 1745852); settings: MTase-Glo luminescence, SAH detection, recombinant enzyme; measured here: COMT inhibition potency;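 also: inhibitor potency for blocking SAH production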
[12] = measured here: cell count channel max response
[13] = measured here: cell number channel AC50
[14] = measured here: lipid (BODIPY) channel AC50
[15] = measured here: lipid channel max response
[16] = measured here: red reporter channel AC50, EF-alpha promoter control reporter in MSC80 mouse Schwann cells
[17] = day 7, measured here: worm number, day 3
[18] = measured here: green reporter channel AC50, mouse Pmp22 promoter in mouse Schwann cells
[19] = TFE3-RCC UOK109 viability, measured here: UOK109 Z-AUC
[20] = TFE3-RCC viability, measured here: UOK124 Z-AUC
[21] = TFE3-RCC viability, measured here: UOK145 Z-AUC
Tags tell the direction and shape of the fitted curve.

Chain of UniProt P50135 (P50135 whole entry, looked up): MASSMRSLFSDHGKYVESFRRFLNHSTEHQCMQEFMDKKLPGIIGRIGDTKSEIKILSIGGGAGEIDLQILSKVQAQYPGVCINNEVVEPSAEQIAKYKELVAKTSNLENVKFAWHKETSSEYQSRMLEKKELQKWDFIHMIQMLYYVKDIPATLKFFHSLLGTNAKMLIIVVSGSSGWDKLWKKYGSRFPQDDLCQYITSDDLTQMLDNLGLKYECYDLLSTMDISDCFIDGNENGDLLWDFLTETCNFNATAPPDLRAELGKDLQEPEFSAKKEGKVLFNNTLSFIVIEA
Chain of UniProt P21964 (P21964 whole entry, looked up): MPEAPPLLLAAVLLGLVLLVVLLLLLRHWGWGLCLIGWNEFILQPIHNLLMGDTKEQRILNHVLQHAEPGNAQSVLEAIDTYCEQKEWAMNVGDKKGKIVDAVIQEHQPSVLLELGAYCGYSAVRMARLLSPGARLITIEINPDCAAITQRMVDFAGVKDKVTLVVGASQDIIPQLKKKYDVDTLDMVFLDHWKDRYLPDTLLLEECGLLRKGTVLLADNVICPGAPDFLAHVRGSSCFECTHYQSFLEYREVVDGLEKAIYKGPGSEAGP

## NC(=O)c1ccc(-c2nc(-c3ccc4c(c3)OCO4)c(-c3ccccn3)[nH]2)cc1
[1]; [12]
  max response: 95.4%
[1]; [13]
  AC50: 0.112 µM [rising, full curve]
[1]; [14]
  AC50: 0.0708 µM [rising, full curve]
[1]; [15]
  max response: 125%
[2]; measured here: PEO4 viability
  AC50: 4.36 µM [falling, full curve]

## CCOC(=O)C(C)(C)Oc1ccc(Cl)cc1
[1]; [12]
  max response: -7.47%
[1]; [13]
  AC50: 0.00501 µM [falling, full curve, poor fit]
[1]; [14]
  AC50: 0.00501 µM [falling, full curve, poor fit]
[1]; [15]
  max response: -4.29%
[3]; [16]
  AC50: 84.9 µM [falling, single point]
[2]; measured here: PEO4 viability
  AC50: 0.0549 µM [rising, full curve, poor fit]

## N=C(N)SCCc1cnc[nH]1
[1]; [12]
  max response: 9.92%
[1]; [13]
  AC50: 15.8 µM [rising, single point]
[1]; [14]
  AC50: 20 µM [rising, single point]
[1]; [15]
  max response: 15.6%
[4]
  IC50: 15.3 µM [falling, partial curve]

## COc1cc(C[C@H]2C(=O)OC[C@@H]2Cc2ccc(OC)c(OC)c2)ccc1O
[1]; [12]
  max response: 61.1%
[1]; [13]
  AC50: 1.78 µM [rising, full curve]
[1]; [14]
  AC50: 11.2 µM [falling, full curve, poor fit]
[1]; [15]
  max response: -60.8%
[5]; [17]
  AC50: 25.8 µM [rising, partial curve, poor fit]

## CC(=O)CCCCn1c(=O)c2c(ncn2C)n(C)c1=O
[1]; [12]
  max response: 33.3%
[1]; [13]
  AC50: 10 µM [falling, partial curve, poor fit]
[1]; [14]
  AC50: 10 µM [falling, partial curve, poor fit]
[1]; [15]
  max response: 37.5%
[3]; [16]
  AC50: 84.9 µM [falling, single point]
[5]; [17]
  AC50: 5.15 µM [falling, partial curve, poor fit]

## O=C1CCc2cc(OCCCCc3nnnn3C3CCCCC3)ccc2N1
[1]; [12]
  max response: 66.5% and 16.2%
[1]; [13]
  AC50: 3.55 µM [rising, full curve]
[1]; [14]
  AC50: 3.55 µM [rising, full curve] and 12.6 µM [rising, partial curve, poor fit]
[1]; [15]
  max response: 91.6% and 31%
[3]; [18]
  AC50: 84.9 µM [falling, single point]
[3]; [16]
  AC50: 84.9 µM [falling, single point]
[6]
  AC50: 32.6 µM [rising, single point]
[7]
  viability change: -3.36%
[2]; measured here: PEO1 parental viability
  AC50: 17.4 µM [falling, partial curve, poor fit]

## COc1c(O)cc2oc3cc(O)c(CC=C(C)C)c(O)c3c(=O)c2c1CC=C(C)C
[1]; [12]
  max response: -21% and -70.5% and -72%
[1]; [13]
  AC50: 25.1 µM [falling, partial curve] and 35.5 µM [falling, single point]
[1]; [14]
  AC50: 22.4 µM [falling, single point] and 22.4 µM [falling, partial curve] and 25.1 µM [falling, partial curve, poor fit]
[1]; [15]
  max response: -67.7% and -96.5% and -83.4%
[5]; day 7, measured here: worm number
  AC50: 9.16 µM [falling, partial curve, poor fit]
[5]; day 7, measured here: worm area, day 3
  AC50: 1.83 µM [falling, full curve, poor fit]
[5]; [17]
  AC50: 5.78 µM [falling, full curve, poor fit]

## O=c1c(-c2ccc(O)cc2)coc2cc(O)ccc12
[1]; [12]
  max response: 42.5%
[1]; [13]
  AC50: 6.31 µM [rising, full curve, poor fit]
[1]; [14]
  AC50: 7.08 µM [rising, full curve, poor fit]
[1]; [15]
  max response: 49.4%
[3]; [18]
  AC50: 0.239 µM [falling, partial curve, poor fit]
[3]; [16]
  AC50: 47.8 µM [falling, partial curve, poor fit]
[6]
  AC50: 0.0651 µM [rising, full curve, poor fit]
[8]
  AC50: 44.7 µM [rising, single point]
[9]
  max response: 16.3% and 14.5%
[2]; measured here: PEO4 viability
  AC50: 0.0616 µM [rising, partial curve, poor fit]

## O=C(c1ccccc1)c1ccc2n1CCC2C(=O)O (centres undefined)
[1]; [12]
  max response: 63.3%
[1]; [13]
  AC50: 35.5 µM [rising, partial curve, poor fit]
[1]; [14]
  AC50: 35.5 µM [rising, partial curve, poor fit]
[1]; [15]
  max response: 66.2%
[10]; [19]
  z-score: 0.294
[10]; [20]
  z-score: 0.758
[10]; [21]
  z-score: 0.0131
[10]; TFE3-RCC viability, measured here: UOK145 cell viability
  AC50: 20.9 µM [falling, partial curve]

## C=CCN1CCc2c(cc(O)c(O)c2Cl)C(c2ccccc2)C1 (centres undefined)
[1]; [12]
  max response: 52.4%
[1]; [13]
  AC50: 7.94 µM [falling, full curve]
[1]; [14]
  AC50: 7.94 µM [falling, full curve]
[1]; [15]
  max response: 53.4%
[3]; [16]
  AC50: 23.9 µM [falling, full curve]
[11]
  IC50: 17.2 µM [rising, partial curve]

## CNC[C@H](O)c1ccc(O)c(O)c1
[1]; [12]
  max response: 36% and 55.6%
[1]; [13]
  AC50: 14.1 µM [rising, partial curve] and 39.8 µM [rising, single point]
[1]; [14]
  AC50: 15.8 µM [rising, partial curve] and 39.8 µM [rising, single point]
[1]; [15]
  max response: 43.5% and 55.9%
[10]; [19]
  z-score: 0.388
[10]; [20]
  z-score: 0.316
[10]; [21]
  z-score: 1.38

Reference: PubChem BioAssay (NCATS)
